Laboratory results: patent publication US20230312725A1 (JIANGSU HENGRUI PHARMACEUTICALS, published 2023)

Biological target: human Claudin18.2 (human)
Assay: cell-based or functional assay

B1: h1902-5 (antibody)
heavy: EVQLVQSGAEVKKPGASVKVSCKASGYTFTSYWMHWVRQAPGQRLEWMGMIHPNSGSTNYNEKFKGRVTITRDTSASTAYMELSSLRSEDTAVYYCARLKTGNSFDYWGQGTTVTVSS[human IgG1 constant region omitted here]
light: DIVLTQSPDSLAVSLGERATINCKSSQSLLNSGNQKNYLTWYQQKPGQPPKLLIYWASTRESGVPDRFSGSGSGTDFTLTISSLQAEDVAVYYCQNAYTYPFTFGQGTKLEIKRTVAAPSVFIFPPSDEQLKSGTASVVCLLNNFYPREAKVQWKVDNALQSGNSQESVTEQDSKDSTYSLSSTLTLSKADYEKHKVYACEVTHQGLSSPVTKSFNRGEC
ADCC effect, IC50 (ng/ml), NUGC4 cells with high Claudin18.2 expression: 32.2 ng/mL
ADCC effect, IC50 (ng/ml), NUGC4 cells with low Claudin18.2 expression: 35.5 ng/mL
ADCC effect, IC50 (ng/ml), NUGC4 cells with moderate Claudin18.2 expression: 30 ng/mL
